Results are given in words; binding and its absence hold for the method and conditions named. In cells and extracts the contact can be indirect. Some results given as binding are weak or reduced against the parent protein; the word gives no strength.
Columns and labels:
[1] = target: LptE^His (Escherichia coli) (UniProt P0ADC1); experiment: pull-down; Ni-affinity purification of LptE^His from the DDM-solubilized envelope fraction of wild-type (lptM^+) cells with pLptDE^His; Ni-NTA 2 h at 4 °C, 50 mM Tris-HCl pH 8, 150 mM NaCl, DDM; SDS-PAGE or BN-PAGE, Coomassie staining or Western blotting
[2] = target: LptM^His (Escherichia coli) (UniProt P0ADN6); experiment: pull-down; Ni-affinity purification of LptM^His from the DDM-solubilized envelope fraction (native conditions); Ni-NTA 2 h at 4 °C, 50 mM Tris-HCl pH 8, 150 mM NaCl, DDM; SDS-PAGE, Coomassie staining or Western blotting

Protein sequences, listed by entry. Tags and fused reporters are not part of them. Residues count along the entry.
UniProt P0ADC1, residues 19-193: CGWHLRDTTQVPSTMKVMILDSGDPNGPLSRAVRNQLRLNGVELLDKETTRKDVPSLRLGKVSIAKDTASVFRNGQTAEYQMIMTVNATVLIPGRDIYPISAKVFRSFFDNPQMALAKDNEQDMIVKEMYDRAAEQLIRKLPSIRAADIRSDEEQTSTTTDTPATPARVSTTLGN

| binding [1] | binding [2] | Binder |
| --- | --- | --- |
| binds |  | CGLKGPLYFPPADKNAPPPTKPVETQTQSTVPDKNDRATGDGPSQVNY (peptide, UniProt P0ADN6 20-67, tri-acylated (mature tri-acylated LptM)) [LptM (endogenous)] |
|  | binds | LptA (protein, UniProt P0ADV1 28-185) VTGDTDQPIHIESDQQSLDMQGNVVTFTGNVIVTQGTIKINADKVVVTRPGGEQGKEVIDGYGKPATFYQMQDNGKPVEGHASQMHYELAKDFVVLTGNAYLQQVDSNIKGDKITYLVKEQKMQAFSDKGKRVTTVLVPSQLQDKNNKGQTPAQKKGN |
|  | binds | LptB (protein, UniProt P0A9V1 1-241) MATLTAKNLAKAYKGRRVVEDVSLTVNSGEIVGLLGPNGAGKTTTFYMVVGIVPRDAGNIIIDDDDISLLPLHARARRGIGYLPQEASIFRRLSVYDNLMAVLQIRDDLSAEQREDRANELMEEFHIEHLRDSMGQSLSGGERRRVEIARALAANPKFILLDEPFAGVDPISVIDIKRIIEHLRDSGLGVLITDHNVRETLAVCERAYIVSQGHLIAHGTPTEILQDEHVKRVYLGEDFRL |
|  | no binding | OmpA (protein, UniProt P0A910 22-346) APKDNTWYTGAKLGWSQYHDTGFINNNGPTHENQLGAGAFGGYQVNPYVGFEMGYDWLGRMPYKGSVENGAYKAQGVQLTAKLGYPITDDLDIYTRLGGMVWRADTKSNVYGKNHDTGVSPVFAGGVEYAITPEIATRLEYQWTNNIGDAHTIGTRPDNGMLSLGVSYRFGQGEAAPVVAPAPAPAPEVQTKHFTLKSDVLFNFNKATLKPEGQAALDQLYSQLSNLDPKDGSVVVLGYTDRIGSDAYNQGLSERRAQSVVDYLISKGIPADKISARGMGESNPVTGNTCDNVKQRAALIDCLAPDRRVEIEVKGIKDVVTQPQA |

From paper PMC10567701
